From PubChem BioAssay AID504466 (National Center for Advancing Translational Sciences (NCATS), 2011)
About 4,200 (1.3%) of roughly 330,000 compounds were called active. The inconclusive results got no clear call from the source; some entries with a clear call stand among them for comparison. Calls follow the shape of the dose curve; as a rule, active = well fitted activation curve with a large enough effect; inconclusive = small, poorly fitted or top-dose-only effect; inactive = no such curve, though single readings can be large or run the other way. Potencies beside an inconclusive call are fits to weak or partial responses and may not hold up.
Potency is read from the fitted curve at half-maximal effect; tags tell the direction and shape of the fitted curve.

Experiment: qHTS screen for small molecules that induce genotoxicity in human embryonic kidney (HEK293T) cells expressing luciferase-tagged ELG1; also: nearly all actives have a fitted effect of over 60% in size; as to activity change, positive = activation: % of control where 0% means no effect
Settings: HEK293T ELG1-luciferase reporter, luminescence, 16 h; series mostly up to 46 µM; activity change, positive = activation: at the top concentration
Summary of the method: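 Step 1: seed 2,000 HEK293T ELG1-luciferase cells per well. Step 2: add compound or DMSO, incubate 16 hr at 37 °C. Step 3: ONE-Glo, 30 min at room temperature, read luminescence.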
With `Nc1c(C(=O)c2ccc(Cl)cc2)sc2nc3c(cc12)CCC3` the Potency was inconclusive: 18.4 µM [activator, single point].
In the case of `CN(C)c1ccc(/C=C2\SC(N3CCCCC3)=NC2=O)cc1`, the Potency was inconclusive: 20.6 µM [activator, single point].
For `CSc1ccccc1NC(=O)c1cccc(S(=O)(=O)N2CCN(C)CC2)c1`, the Potency was inconclusive: 20.6 µM [activator, single point].
In the case of `O=C(NCCCN1CCCCC1)C1CCC(CNS(=O)(=O)c2cccc3nsnc23)CC1` (configuration not stated), the “activity change, positive = activation” value was inactive: -0.688%.
With `O=c1cc(-c2ccco2)oc2ccc(Cl)cc12` the Potency was inconclusive: 16.4 µM [activator, partial curve].
With `Cc1ccc(NC(=O)c2ccccn2)c(Br)c1` the Potency was active: 4.11 µM.
With `COC(=O)C1=C(C(=O)OC)[C@@H]2N(C)c3ccc(OC)cc3[C@@]23C[C@@H](C(=O)OC)N=C3N1` the “activity change, positive = activation” value was inactive: 4.69%.
In the case of `Oc1ccccc1-c1cc(-c2ccccc2)no1`, the Potency was inconclusive: 2.31 µM [activator, full curve].
In the case of `O=C(CCCCl)Oc1ccc2cc(-c3ccc4ccccc4n3)c(=O)oc2c1`, the Potency was inconclusive: 23.1 µM [activator, partial curve, poor fit].
In the case of `COc1cc(Cl)ccc1OCc1cc(C(=O)NCc2cc(C(C)C)no2)no1`, the Potency was inconclusive: 2.06 µM [activator, partial curve].
In the case of `CC(=O)Nc1ccc(C(=O)NCCc2ccccc2)cc1`, the Potency was inconclusive: 14.6 µM [activator, partial curve].
In the case of `COc1ccc2nc(NC(=O)CSc3n[nH]c(N)n3)sc2c1`, the Potency was active: 14.6 µM.
With `CC(C)(C)c1cc(NC(=O)C2CCCO2)no1` (configuration not stated) the Potency was inconclusive: 12.6 µM [activator, partial curve, poor fit].
For `CCn1c(=O)cc(OCC(=O)Nc2ccccc2C#N)c2ccccc21`, the Potency was inconclusive: 16.4 µM [activator, partial curve, poor fit].
For `COc1ccc(-c2cn(Cc3ccc(C(N)=O)cc3)c(-c3ccncc3)n2)cc1`, the Potency was inconclusive: 14.6 µM [activator, partial curve].
With `O=C(N[C@@H](Cc1ccccc1)C(=O)OCC(=O)N1CCOCC1)c1cccs1` the “activity change, positive = activation” value was inactive: -4.63%.
With `COc1cccc(Oc2ccc(N/C=C/C(=O)C(C)(C)C)cc2)c1` the Potency was inconclusive: 32.6 µM [activator, partial curve, poor fit].
For `Cc1ccc(C(=O)NCCNC(=O)c2cnccn2)cc1`, the “activity change, positive = activation” value was inactive: -0.0843%.
In the case of `CC(=O)Nc1ccccc1C(=O)C(=O)Nc1ccc(C)c(F)c1`, the Potency was inconclusive: 11.6 µM [activator, partial curve, poor fit].
In the case of `Cc1cc(C(=O)CN2CC(C)OC(C)C2)c(C)n1-c1ccccc1` (configuration not stated), the Potency was active: 20.6 µM.
For `Cc1ccc(/C=C/C(=O)c2ccccc(=O)c2O)c(C)c1`, the Potency was inconclusive: 29.1 µM [activator, single point].
For `CCOC(=O)C1(CCc2ccccc2)CCN(C(=O)CCn2cncn2)CC1`, the Potency was inconclusive: 23.1 µM [activator, partial curve, poor fit].
In the case of `CCCNC(=O)c1ccc(-c2nc3ccccc3s2)s1`, the Potency was active: 0.206 µM.
With `Brc1ccccc1OCCCCn1cnc2ccccc21` the Potency was inconclusive: 25.9 µM [activator, single point].
For `Cc1cccc(NC(=S)N(CCCN2CCOCC2)Cc2ccco2)c1`, the Potency was inconclusive: 6.51 µM [activator, single point].
With `CN(C)CCCNC(=O)c1cc2sc3ccccc3c2s1` the Potency was inconclusive: 23.1 µM [activator, partial curve, poor fit].
For `COc1nc(C)ccc1-c1noc(-c2ccco2)n1`, the Potency was inconclusive: 1.12 µM [activator, full curve, poor fit].
In the case of `CCOC(=O)C1=C(C)N(c2ccc(C)cc2)C(=O)/C1=C\c1ccc(O)c(OC)c1`, the “activity change, positive = activation” value was inactive: 2.46%.
With `CN(C)C=Nc1ccc2nc3c(cc2c1)[nH]c1ccccc13` the Potency was inconclusive: 9.2 µM [activator, partial curve].
In the case of `CCc1ccc2oc(-c3ccc(OC)cc3)cc(=Nc3cccc(C(=O)O)c3)c2c1`, the Potency was active: 4.11 µM.
For `Cc1ccc(-c2csc(NC(=O)C3=COCCO3)n2)cc1`, the Potency was inconclusive: 20.6 µM [activator, partial curve, poor fit].
In the case of `O=C(Nc1ccc(Br)cc1)N1CCCCCC1`, the Potency was inconclusive: 8.2 µM [activator, partial curve].
For `COCCN(C(=O)COc1ccc(Cl)cc1)c1nnc(-c2cccnc2)s1`, the Potency was inconclusive: 20.6 µM [activator, partial curve, poor fit].
With `O=c1[nH]cnc2c1oc1ccccc12` the Potency was inconclusive: 5.17 µM [activator, partial curve, poor fit].
For `Cc1ccc(-n2nc3ccc(N)cc3n2)cc1Cl`, the Potency was inconclusive: 2.31 µM [activator, full curve].
In the case of `CCOC(=O)C1=CN(Cc2ccco2)S(=O)(=O)NC1CC` (configuration not stated), the “activity change, positive = activation” value was inactive: 2.36%.
For `CCn1c2ccccc2c2cc(NC(=O)COC(=O)c3ccc(NC(=O)CC#N)cc3)ccc21`, the Potency was active: 23.1 µM.
In the case of `Fc1cc(F)c2nc(Nc3nc4cc5c(cc4s3)OCO5)sc2c1`, the Potency was inconclusive: 32.6 µM [activator, partial curve, poor fit].
With `Cc1ccc(C(=O)Nc2nc(=O)n(C(=O)c3ccccc3Cl)s2)cc1` the Potency was inconclusive: 8.2 µM [activator, partial curve].
In the case of `CCOc1cccc(/C=N/NC(=O)c2ccc3c(c2)OCCO3)c1O`, the Potency was inconclusive: 23.1 µM [activator, single point].
In the case of `O=C(N/N=C\c1ccccn1)c1ccccc1O`, the Potency was inconclusive: 29.1 µM [activator, single point].
In the case of `O=C(c1ccc2nccnc2c1)N1CCCC(Nc2ccc(F)c(F)c2)C1` (configuration not stated), the “activity change, positive = activation” value was inactive: -1.19%.
For `Cc1ccc2oc(-c3ccc(NC(=O)c4ccncc4)cc3O)nc2c1`, the Potency was inconclusive: 16.4 µM [activator, partial curve, poor fit].
With `Cc1c(Cl)cccc1NC(=O)c1ccco1` the “activity change, positive = activation” value was inactive: 6.73%.
For `O=C(Nc1nc(-c2cccs2)cs1)c1ccc(Cl)s1`, the Potency was inconclusive: 32.6 µM [activator, partial curve, poor fit].
With `Cc1ccc(S(=O)(=O)c2cc3cc(Br)ccc3oc2=O)cc1` the Potency was inconclusive: 25.9 µM [activator, partial curve, poor fit].
With `CC(CCc1ccccc1)NC(=O)C(=O)Nc1ccccc1` (configuration not stated) the Potency was inconclusive: 13 µM [activator, partial curve].
In the case of `c1cnc(Nc2nc(-c3ccc4ccccc4c3)cs2)nc1`, the Potency was inconclusive: 0.326 µM [activator, full curve, poor fit].
In the case of `CCOC(=O)c1nn(-c2ccc(C)cc2)c(=O)cc1OCC(=O)Nc1cccc(C)c1`, the “activity change, positive = activation” value was inactive: 0.0069%.
With `CC(=O)NC(Cc1c[nH]c2ccccc12)C(=O)N/N=C/c1ccccc1` (configuration not stated) the Potency was inconclusive: 10.3 µM [activator, partial curve, poor fit].
With `COc1ccc(/C=C/C(=O)Nc2cc(S(=O)(=O)N3CCOCC3)ccc2C)cc1OC` the Potency was inconclusive: 29.1 µM [activator, single point].
In the case of `Cc1ccc(C)c(Oc2coc3cc(O)ccc3c2=O)c1`, the “activity change, positive = activation” value was inactive: 0.164%.
With `CCOCCCn1c(=S)[nH]c2cc(C(=O)NCCc3ccccc3)ccc2c1=O` the Potency was inconclusive: 25.9 µM [activator, partial curve, poor fit].
With `Cc1cccc(C(=O)N2CCCC(CCC(=O)N3CCN(c4ccccn4)CC3)C2)c1C` (configuration not stated) the “activity change, positive = activation” value was inactive: -15.5%.
For `O=c1c(Cl)c(NCc2ccco2)cnn1C12CC3CC(CC(C3)C1)C2`, the “activity change, positive = activation” value was inactive: -8.68%.
With `CC(C)C(=O)NCCc1nc2ccccc2n1C` the “activity change, positive = activation” value was inactive: 0.394%.
With `O=C(NC1CCCCC1)c1cc2cc(Br)ccc2o1` the Potency was inconclusive: 9.2 µM [activator, partial curve].
In the case of `CC[C@]1(c2ccccc2OC)ON(c2ccccc2C(F)(F)F)C1=O`, the “activity change, positive = activation” value was inactive: -5.25%.
With `CC(=O)Nc1ccc(-c2cc(-c3ccc(NC(C)=O)cc3)nc(-c3ccccc3)n2)cc1` the “activity change, positive = activation” value was inactive: -0.155%.
For `O=C(CSc1ncccn1)NCc1ccccc1Cl`, the Potency was active: 18.4 µM.
For `Nc1nc(C23CC4CCC(CC(C4)C2)C3)cs1`, the “activity change, positive = activation” value was inactive: -1.13%.
For `Cc1ccc(/C=C(\C#N)c2nc3ccccc3[nH]2)s1`, the Potency was inconclusive: 0.92 µM [activator, full curve, poor fit].
In the case of `Cc1nc(-c2ccccc2)sc1C(=O)/C=C/N(C)C`, the Potency was inconclusive: 14.6 µM [activator, partial curve, poor fit].
In the case of `FCCCOc1ccc(-c2ccnc3ncnn23)cc1`, the Potency was inconclusive: 20.6 µM [activator, partial curve, poor fit].
With `O=C(Cc1ccc(Cl)cc1)Nc1ccccc1N1CCN(C(=O)c2ccccc2)CC1` the “activity change, positive = activation” value was inactive: -26.1%.
For `Cn1c(N)c(C(=O)CSc2ccccn2)c(=O)n(C)c1=O`, the Potency was inconclusive: 23.1 µM [activator, partial curve, poor fit].
With `Cc1ccc(NC(=O)CCC(=O)NNC(=O)COc2ccc([N+](=O)[O-])cc2)c(C)c1` the “activity change, positive = activation” value was inactive: -0.838%.
For `CCCOc1ccc(-c2cn3ccccc3n2)cc1`, the Potency was inconclusive: 0.231 µM [activator, single point].
With `O=C(CC1SC(N2CCCCC2)=NC1=O)Nc1cccc(C(=O)NCc2ccc(F)cc2)c1` (configuration not stated) the “activity change, positive = activation” value was inactive: -6.66%.
For `O=C(Nc1nnc(-c2ccccc2)s1)c1ccc(F)cc1`, the Potency was inconclusive: 9.2 µM [activator, partial curve].
In the case of `O=C1c2ccccc2C(=O)C1c1ccnc2ccccc12`, the Potency was inconclusive: 0.411 µM [activator, full curve].
With `C/C(Cl)=C/CSc1nn2c(=O)c3ccccc3nc2s1` the Potency was inconclusive: 23.1 µM [activator, partial curve, poor fit].
